± gives the standard deviation of the averaged measurements. Some of the results follow.

The assay relates to PfAP2-G AP2 domain (GST-tagged). The assay is described as follows: gcPBM binding intensity (ln(normalized median fluorescence intensity)); higher = stronger DNA binding. In a few lines: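 For binding intensity, the highest Masliner-normalised natural-log median intensity across replicate spots of either probe orientation was taken. Protein bound to the array was stained with Alexa488 anti-GST antibody and scanned at 488 nm. The protein, GST-tagged P. falciparum DNA-binding domains from E. coli at about 25 μg on average, had been applied for 1 h to an Agilent 4 × 180k array of primer-extended double-stranded 36-bp intergenic genomic probes and negative controls.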
Take “TTTATACTATAATTATGTACTTATAAAAGGAATAAA [XGTACX_site8027]”: the “gcPBM binding intensity (ln)” value worked out at 11.3 ± 0.7.
In the case of “TGTATTAATAAAAATACACACATCATATTATAGAAA [CACACA_site7629]” it was 9.895 ± 0.078; in that of “TTAAAAAAAGATTATACACACACATATATAAACATA [CACACA_site8136]”, 9.865 ± 0.092; in that of “TCCTCTTTTATTTTTACACACGCGTAAACATATATA [CACACA_site667]”, 10.5 ± 0.4.
In the case of “TGAAATAAAAAATATAGTACTCGTTCGTAACCAAAA [XGTACX_site413]” it was 11.4 ± 0.85; in that of “ATGGGTTAAAAATGCACACAAAAAAATATACAGATA [CACACA_site4321]”, 10.3 ± 0.15.
Regarding “TATAAGATTATACAAAGTACATATAAATAATATATT [XGTACX_site1917]”, the “gcPBM binding intensity (ln)” value stood at 10.9 ± 0.8.
“ATATATATATAAATATGTACATATATATATTATATA [XGTACX_site120]”: the “gcPBM binding intensity (ln)” value was 11.2 ± 0.62.
Next, “TTCAATTTTTTATGAACACACAAAAAAAAAAAAAAA [CACACA_site2533]”: 10.1 ± 0.52; “ACATAATTAACAAATACACACACACCCACCCACAAA [CACACA_site8069]”: 10.7 ± 0.43.
Next, “ATATATAAGGATGTCACACATAAATATTAACACTAA [CACACA_site5101]”: 10.07 ± 0.085; “AAGAAAAAATATATATATATATATATATATAATATG [TGCATGCA_negctrl_site417]”: 9.69 ± 0.26.
In the case of “ATTTGTGATTTGTGTGTGCACGTATTTACAGAACAA [GTGCAC_site9498]” it was 10.9 ± 0.43; in that of “TTATATTATTTTTATACATGCATTTCTATATATTTT [TGCATGCA_site164]”, 9.89 ± 0.17; in that of “ATATATATTTCTTAAAGTACATAATAATAAAAATAT [XGTACX_site8981]”, 11 ± 0.71.
With “ATAATTATTAAGAGAACATGCAAAATATATATGTTT [TGCATGCA_site503]”, the “gcPBM binding intensity (ln)” value was determined as 10.01 ± 0.021.
Next, “AAAGCACCCAGGCACACACACAAAGGAAAAGAAAAA [CACACA_site232]”: 10.1 ± 0.32.
In the case of “TTAAAATATGATATATGTACATAATTACTAAAAACA [XGTACX_site276]” it was 11.2 ± 0.47; in that of “GAATAAATTAAAAACGCATGTATCATTACTACATAA [TGCATGCA_site111]”, 9.8 ± 0.014.
In the case of “TTTATATTATACTATACATGCATATAATAAAGGTCA [TGCATGCA_site934]” it was 9.95; in that of “ATATATATATATATTTGTACGTATTATGTATTTTTT [XGTACX_site3530]”, 11.5 ± 0.98.
For the sequence “AATACAATAAAATAGTGTACATATATATTATGTATA [XGTACX_site8258]”, the “gcPBM binding intensity (ln)” value worked out at 11.4 ± 0.88.
For “ATTATTTCTTTGTGATGTACAAATAAACATGTTGGT [XGTACX_site5636]”, the “gcPBM binding intensity (ln)” value was determined as 10.9 ± 0.58.
Regarding “TATATATTACATTGTTGTACATATATATTATATATA [XGTACX_site60]”, the “gcPBM binding intensity (ln)” value is 11.1 ± 0.8.
As for “AATAGAATAATCCTTACACACACACGCGCACGAATA [CACACA_site6365]”, the “gcPBM binding intensity (ln)” value came to 10.3 ± 0.18.
Consider “ATTTTATTTTTTTGTGATAATTGATTTATATATTGT [TGCATGCA_negctrl_site563]”, for which the “gcPBM binding intensity (ln)” value was found to be 9.79 ± 0.12.
Turning to “CATAATACCTATAACACACACAATTATACATAAACT [CACACA_site7506]”, the “gcPBM binding intensity (ln)” value came out at 10.1 ± 0.12.
Next, “ATTTATCCAAAAAAATGTACAGGATAATTTGTTCAT [XGTACX_site7737]”: 10.9 ± 0.47; “TATTATGCCTTTAATATACACACTAATATTTTTTTG [CACACA_site2045]”: 10.12 ± 0.099.
With “GGGTTCAATTTAAAGAGTACAAAAAATGTAGGTCAT [XGTACX_site5290]”, the “gcPBM binding intensity (ln)” value was found to be 11.4 ± 0.89.
Next, “TTTGTAGTTTGCACATGTACACATTTCAAAATAAAG [XGTACX_site7568]”: 11.5 ± 0.9.
With “TTTTAATAAACAAAACGTACACATTATTATTATATA [XGTACX_site335]”, the “gcPBM binding intensity (ln)” value was determined as 11.4 ± 0.91.
Take “TTTCCATATTGTGGATGTACGTTTTGAGGTTTTTAC [XGTACX_site3362]”: the “gcPBM binding intensity (ln)” value was 11.2 ± 0.9.
Turning to “AATATATACATATATTGTACATATAGTTTCTTGCAT [XGTACX_site7871]”, the “gcPBM binding intensity (ln)” value came to 10.9 ± 0.5.
In the case of TTTTTTTTTTTGTGGGTGCGTTTATAAAAACAGGAA it was 10.5 ± 0.64; in that of “TTTTTTTCTTGTTTTAAATAATATACTGGAAAAAAA [CACACA_negctrl_site585]”, 9.97 ± 0.37.
Turning to “AGAGAGAAAGTTATAACATGCAACAATTTTTAGAAC [TGCATGCA_site96]”, the “gcPBM binding intensity (ln)” value came to 9.785 ± 0.021.
In the case of “ATAATACATATAGAAGGTACACTATTATTTTCCTGA [XGTACX_site903]” it was 11.1 ± 0.62; in that of GAGGTACATTAATTAGTGCATTAAAATTTTTATCCT, 10.9 ± 0.67.
In the case of “TTTAACATAAATTAAACACACAATAAAATACATTAA [CACACA_site6699]” it was 10.1 ± 0.12.
Next, “CATAAATACAGATATACACACATATATATATATATA [CACACA_site4528]”: 10.1 ± 0.42; “ATTATCCATGCATTTACACACACACTAATAAAAATT [CACACA_site9358]”: 10.3 ± 0.2; “ACTTCATAAACATTTTGTACGTATGTATCTTTTTAT [XGTACX_site7012]”: 11.2 ± 0.65.
“TTAATATGGAAATGTTGTACATTTCTTGAAGCATTC [XGTACX_site525]”: the “gcPBM binding intensity (ln)” value turned out to be 11.1 ± 0.79.
Turning to “TTATTGAAAAACATAATATCTAAGAGGGTAATATAT [GTGCAC_negctrl_site599]”, the “gcPBM binding intensity (ln)” value is 10 ± 0.13.

For the origin of these results see the supplement of paper PMC11417369.
